# Test results: the BET-seq Pho4 binding data (Le et al. 2018)
# The list shows a part of the results. These are noisy estimates, calculated here from bound and input reads.
# Target: T1, Pho4 (S. cerevisiae) (UniProt P07270)
# T1 sequence: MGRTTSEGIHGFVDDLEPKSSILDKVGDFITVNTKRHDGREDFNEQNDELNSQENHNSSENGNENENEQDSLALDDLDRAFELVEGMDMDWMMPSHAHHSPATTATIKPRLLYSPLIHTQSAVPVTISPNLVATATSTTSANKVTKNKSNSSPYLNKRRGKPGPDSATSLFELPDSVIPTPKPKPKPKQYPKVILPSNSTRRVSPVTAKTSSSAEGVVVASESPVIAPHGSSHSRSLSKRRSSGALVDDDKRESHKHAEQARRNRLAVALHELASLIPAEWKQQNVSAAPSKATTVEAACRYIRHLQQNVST
# Experiment: relative binding free energy (BET-seq); higher = weaker binding
# Conditions: reference: library average
row,Sequence,relative binding free energy
1,TGCTGCACGTGTTTAG,-0.19 kcal/mol
2,TGCAGCACGTGGGGAT,-0.3 kcal/mol
3,TAGGTCACGTGTCCTG,0.06 kcal/mol
4,TGCATCACGTGGAGGG,0.08 kcal/mol
5,ACTTGCACGTGGGGAG,-0.21 kcal/mol
6,GTTAGCACGTGCGTAG,-0.01 kcal/mol
7,TTTGCCACGTGAGTTT,0.23 kcal/mol
8,GGAGGCACGTGACATT,0.16 kcal/mol
9,GGCTTCACGTGGGTCG,0.3 kcal/mol
10,GGCGGCACGTGGTGCT,-0.11 kcal/mol
11,TGGACCACGTGGTGAG,-0.2 kcal/mol
12,GTTAGCACGTGCGAGG,0.1 kcal/mol
13,TTAACCACGTGGAGTG,-0.08 kcal/mol
14,GTGGACACGTGCTTTG,-0.06 kcal/mol
15,TGATGCACGTGGGGAT,-0.03 kcal/mol
16,GGGCGCACGTGTGTTT,0.06 kcal/mol
17,CGGGTCACGTGTGGTC,0.05 kcal/mol
18,TAGGTCACGTGGAGTC,0.13 kcal/mol
19,CTTGTCACGTGGATGT,0.14 kcal/mol
20,AGGTTCACGTGATAGC,0.44 kcal/mol
21,TAGGGCACGTGTGGTC,-0.14 kcal/mol
22,TCGATCACGTGTGGGC,0.12 kcal/mol
23,CTTAACACGTGGTGAT,-0.02 kcal/mol

row,Sequence,relative binding free energy
1,TGTGGCACGTGACTAT,-0.02 kcal/mol
2,TGGGGCACGTGTTAGA,-0.08 kcal/mol
3,CTGATCACGTGGGGGT,0.09 kcal/mol
4,TGTCACACGTGAATGG,0.24 kcal/mol
5,AAAGGCACGTGGAATT,0.05 kcal/mol
6,ATTTGCACGTGGGTAT,-0.14 kcal/mol
7,TGCTTCACGTGATAAG,0.31 kcal/mol
8,ATTCTCACGTGGATTT,0.23 kcal/mol
9,GAGATCACGTGGTTAC,0.39 kcal/mol
10,AGTAGCACGTGAAGGT,0.29 kcal/mol
11,GATGGCACGTGCTGTG,-0.17 kcal/mol
12,GTCATCACGTGTGTAT,0.12 kcal/mol
13,TTCGTCACGTGGGCCG,0.08 kcal/mol
14,TGGTTCACGTGCTTCA,0.22 kcal/mol
15,GGTTGCACGTGCGTGG,0.04 kcal/mol
16,GGATTCACGTGTTGAT,0.41 kcal/mol
17,TATTTCACGTGTGAGA,0.33 kcal/mol
18,TGGTGCACGTGAATAT,0.21 kcal/mol
19,GGTTGCACGTGCATGG,0.07 kcal/mol
20,AATTACACGTGGTTGG,0.12 kcal/mol
21,AGTAGCACGTGGAAGT,-0.02 kcal/mol
22,TGCTTCACGTGAGATG,0.44 kcal/mol
23,AGGCGCACGTGCAGGG,-0.28 kcal/mol

row,Sequence,relative binding free energy
1,TCGGTCACGTGGGTTG,0.08 kcal/mol
2,CGGTTCACGTGGTATA,0.18 kcal/mol
3,CGTCTCACGTGGGGTA,0 kcal/mol
4,TTCTGCACGTGGTGTT,-0.05 kcal/mol
5,AACGGCACGTGGAGGG,-0.22 kcal/mol
6,TAATGCACGTGGTGCG,-0.09 kcal/mol
7,TGGTCCACGTGCGAGG,-0.03 kcal/mol
8,TTTGCCACGTGGTGTA,-0.22 kcal/mol
9,CGAGCCACGTGAGGTG,0.28 kcal/mol
10,TACTTCACGTGGAGGA,0.29 kcal/mol
11,TCTGGCACGTGGTATG,-0.13 kcal/mol
12,AAGGGCACGTGCTATG,-0.2 kcal/mol
13,CTTTACACGTGTTTAA,0.04 kcal/mol
14,GGAATCACGTGGTTAA,0.23 kcal/mol
15,TAGTACACGTGTTGCG,-0.02 kcal/mol
16,TTATGCACGTGTTTAA,0.03 kcal/mol
17,GGTGACACGTGATGAT,0.24 kcal/mol
18,AGATGCACGTGGACGT,-0.08 kcal/mol
19,ATAGCCACGTGGAGTT,-0.01 kcal/mol
20,AGTCTCACGTGTGGAT,0.1 kcal/mol
21,AGGGTCACGTGGGACG,0.03 kcal/mol
22,TATTTCACGTGCAGGA,0.22 kcal/mol
23,GTAGGCACGTGATGTA,0.03 kcal/mol

row,Sequence,relative binding free energy
1,TAGGTCACGTGTTCTT,0.11 kcal/mol
2,GTTGACACGTGGGCGT,-0.15 kcal/mol
3,AAATGCACGTGTTGAA,0.09 kcal/mol
4,TTGTGCACGTGAATGT,0.18 kcal/mol
5,AATGGCACGTGTGCGC,0.01 kcal/mol
6,GGAGGCACGTGATGCG,0.14 kcal/mol
7,AGGTGCACGTGCGGGT,0.02 kcal/mol
8,TTGCTCACGTGGGTTT,0.16 kcal/mol
9,GTAATCACGTGGTTTC,0.14 kcal/mol
10,AGGGGCACGTGATATT,-0.01 kcal/mol
11,CTAGGCACGTGAGGGG,0.02 kcal/mol
12,TGCTACACGTGGGGGA,-0.13 kcal/mol
13,TGGTTCACGTGCGTAG,0.21 kcal/mol
14,GTTAGCACGTGATGGT,0.11 kcal/mol
15,GTTCACACGTGTTGGA,0.07 kcal/mol
16,TGGATCACGTGAGTCT,0.24 kcal/mol
17,GGTTTCACGTGGTCAG,0.26 kcal/mol
18,AGGTTCACGTGTGGGT,0.24 kcal/mol
19,ATTGTCACGTGCAGGA,0.12 kcal/mol
20,AGGCGCACGTGAAGTG,0.06 kcal/mol
21,ATTTCCACGTGTTGGG,0.23 kcal/mol
22,CGATTCACGTGTGGTA,0.43 kcal/mol
23,TTGTGCACGTGCTGCG,-0.11 kcal/mol

row,Sequence,relative binding free energy
1,TTGATCACGTGTGGCG,0.04 kcal/mol
2,AGGTTCACGTGTTACA,0.25 kcal/mol
3,AGGGGCACGTGTCTAT,-0.1 kcal/mol
4,GTTTACACGTGGTGCG,0.21 kcal/mol
5,TTATTCACGTGTTTCG,0.24 kcal/mol
6,TGGTCCACGTGTTTAG,0.02 kcal/mol
7,ATAAGCACGTGTATGG,-0.08 kcal/mol
8,GCGGGCACGTGCGCGT,-0.09 kcal/mol
9,AAAAGCACGTGGTGAG,-0.03 kcal/mol
10,TAAGCCACGTGTTGTT,-0.07 kcal/mol
11,TGTCTCACGTGGTAGA,0.06 kcal/mol
12,GTGTGCACGTGGGCTC,-0.1 kcal/mol
13,TTTATCACGTGGTGTT,0.05 kcal/mol
14,AGAGTCACGTGTGAGA,0.18 kcal/mol
15,TGGGTCACGTGGCCAG,0.06 kcal/mol
16,TTTGTCACGTGTGAGT,0.24 kcal/mol
17,AGCTGCACGTGGATGG,-0.02 kcal/mol
18,TTTGGCACGTGATACT,-0.02 kcal/mol
19,TTCATCACGTGTTGTA,0.07 kcal/mol
20,ATTGGCACGTGATCGG,-0.1 kcal/mol
21,TGATGCACGTGGTCAT,-0.19 kcal/mol
22,TGTAACACGTGTGTCG,0.01 kcal/mol
23,CATGTCACGTGGTAAT,0.04 kcal/mol
